# Test results as given in the supplement of paper PMC4166925.
# ± gives the standard deviation of the averaged measurements. Whole data set: some 33,000 sequences, median “E-score (dimensionless, -0.5 to 0.5)” near -0.049, cut for the highest 2% near 0.37. Some of the results follow.
# Test system: T1, PmTbr T-box DNA-binding domain (GST fusion)
# T1 sequence: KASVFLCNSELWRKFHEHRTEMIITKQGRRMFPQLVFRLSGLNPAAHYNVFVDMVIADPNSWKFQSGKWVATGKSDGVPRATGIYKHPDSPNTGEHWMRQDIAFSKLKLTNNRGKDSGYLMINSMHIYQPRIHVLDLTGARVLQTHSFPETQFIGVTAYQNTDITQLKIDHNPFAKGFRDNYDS
# Test: PBM E-score of 8-mer (E-score (dimensionless, -0.5 to 0.5)); Tbr is Tbrain of the sea star Patiria miniata (Pm) or the sea urchin Strongylocentrotus purpuratus (Sp); higher = stronger binding preference; most listed sequences are background and not binding sites
# Settings: the construct has about 5 more residues each side
# In short: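 GST-fused Tbr T-box DNA-binding domains (the whole T-box plus about five flanking residues) were expressed in BL21 E. coli at 20 °C and purified by glutathione affinity chromatography. Universal Agilent oligonucleotide arrays were made double-stranded by primer extension, incubated with 200 nM protein in PBS (pH 7.5), then scanned and quantified. Every ungapped 8-mer was scored from probe intensities. The Universal PBM Analysis Suite gave each word an enrichment E-score, averaged over duplicate arrays.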
row,Sequence,PBM E-score of 8-mer
1,AGGCACCC,-0.169 ± 0.043
2,CCGGGCAC,-0.218 ± 0.17
3,ATCAATCG,-0.083 ± 0.026
4,CGATGGTC,-0.212 ± 0.0066
5,ATTCGGAG,-0.193 ± 0.037
6,CCTTGTAG,-0.136 ± 0.055
7,CATAATGA,-0.0551 ± 0.045
8,GGGCCCGA,-0.274 ± 0.034
9,CTCTCAAG,0.0215 ± 0.041
10,ATTGTGCA,-0.0224 ± 0.024
11,GAAGTCAC,-0.0383 ± 0.0022
12,AGCTCTTC,-0.189 ± 0.021
13,ATCGACTG,-0.192 ± 0.069
14,TATTTACA,-0.0373 ± 0.021
15,CTCCCCCC,-0.271 ± 0.022
16,CTTTTCGC,0.273 ± 0.015
17,TCAAAACA,-0.0131 ± 0.0092
18,TCCGACAA,0.118 ± 0.0045
19,CCTGCCAC,0.221 ± 0.0026
20,TATAAGAA,-0.028 ± 0.13
21,CGGGTGAG,0.266 ± 0.018
22,AATTTGTC,0.284 ± 0.0037
23,ATGCTCTA,-0.371 ± 0.026
24,CTTATAAG,-0.0602 ± 0.076
25,GAATGAAA,-0.143 ± 0.032

row,Sequence,PBM E-score of 8-mer
1,ACTAGATG,-0.0461 ± 0.043
2,CGGTGTCA,0.4 ± 0.012
3,AACACTCC,0.288 ± 0.029
4,AAAGCTCC,-0.321 ± 0.059
5,AACGGGTG,0.199 ± 0.049
6,CCCCGGCG,-0.181 ± 0.037
7,ACCCGCTG,0.153 ± 0.016
8,CTCCGACC,-0.166 ± 0.0073
9,AGCTAAGC,-0.0834 ± 0.0098
10,CAACTCCG,0.0281 ± 0.032
11,ATCCGCAA,0.002 ± 0.083
12,AACGTAGA,-0.304 ± 0.058
13,CTCTTGCC,-0.00238 ± 0.0026
14,AAACGGGC,-0.228 ± 0.087
15,TCACTCAA,0.0445 ± 0.019
16,ATATTTCG,0.198 ± 0.047
17,AAGTATGC,0.008 ± 0.011
18,GCTTACCC,-0.074 ± 0.084
19,ATGCCGTC,-0.114 ± 0.059
20,GCTTAATA,-0.138 ± 0.019
21,ATGGTCTG,-0.133 ± 0.075
22,CATTCGAA,-0.124 ± 0.0043
23,ATTCGTTG,-0.0949 ± 0.043
24,GATGTAAC,0.00732 ± 0.00069
25,GATGGGAC,-0.141 ± 0.059

row,Sequence,PBM E-score of 8-mer
1,AAATTCCG,0.0152 ± 0.11
2,TGCCGGAA,0.0789 ± 0.029
3,GATCCACA,0.0954 ± 0.011
4,GCTGTTTA,-0.0135 ± 0.078
5,TCACACCA,0.48075 ± 0.00012
6,GACGACTA,0.0252 ± 0.035
7,ACACTATC,0.3271 ± 0.0028
8,AGCCGGTC,-0.275 ± 0.052
9,CCTCTCCA,-0.0419 ± 0.03
10,CAGAATGC,-0.0605 ± 0.12
11,CGTCTTCA,-0.00878 ± 0.0017
12,ACGGGTGA,0.13 ± 0.0046
13,GCCCACGC,-0.153 ± 0.034
14,ACGAGTCA,0.0181 ± 0.0023
15,AAATGTAC,-0.156 ± 0.053
16,CATAATTC,0.0106 ± 0.07
17,TAAACTAA,-0.035 ± 0.025
18,CGAAGAAA,-0.00252 ± 0.047
19,AGTGATCC,-0.134 ± 0.014
20,CCGGGAGA,0.018 ± 0.013
21,GTCTTAAC,-0.147 ± 0.066
22,CAATTTAC,0.0778 ± 0.034
23,CCCCAGTA,-0.146 ± 0.034
24,ATAGGCTC,-0.224 ± 0.015
25,CCAAGAGC,-0.212 ± 0.044

row,Sequence,PBM E-score of 8-mer
1,CCGAAACG,0.0417 ± 0.074
2,CGTAGTGC,-0.0466 ± 0.03
3,GATATGCC,-0.14 ± 0.1
4,CGAGAACA,0.2 ± 0.0064
5,CCGAGCAA,-0.2992 ± 0.0028
6,CAGATAGA,-0.1661 ± 0.001
7,CCGTGGTC,0.00288 ± 0.032
8,GGAAGCCA,-0.15 ± 0.044
9,CCGCACCA,0.187 ± 0.0087
10,AGTATAGA,-0.159 ± 0.016
11,AATGTACG,-0.101 ± 0.005
12,AAGACAAT,-0.0638 ± 0.0098
13,CCTTCTAC,-0.124 ± 0.028
14,ACAGTTCC,0.187 ± 0.036
15,CGCGGCCG,-0.0498 ± 0.018
16,GTGCTTCA,-0.105 ± 0.061
17,CTTCTTGC,-0.0189 ± 0.0043
18,ACGCCCCA,0.225 ± 0.022
19,CGCCAGCC,0.0394 ± 0.03
20,ACACTGGC,0.0286 ± 0.049
21,GGGAAGCA,-0.135 ± 0.035
22,CGGCGGAC,-0.105 ± 0.012
23,TACAGAGA,-0.0283 ± 0.066
24,CGTTCCAG,-0.142 ± 0.013
25,ACTTGGGG,0.0475 ± 0.047

row,Sequence,PBM E-score of 8-mer
1,GCAACTGC,0.095 ± 0.016
2,CCAGAGAA,0.0215 ± 0.056
3,AATGCCCA,-0.158 ± 0.024
4,ATCTCGGC,-0.0253 ± 0.012
5,GCCCATTA,-0.282 ± 0.064
6,ACAATAAG,0.063 ± 0.063
7,CAAAAAAC,0.0888 ± 0.075
8,GACAAACC,0.0399 ± 0.017
9,AGAAATGA,-0.133 ± 0.034
10,TACCAGAA,-0.126 ± 0.082
11,ATGACCCC,-0.262 ± 0.087
12,CGTTCGAC,0.0978 ± 0.017
13,ACCGACTC,-0.012 ± 0.041
14,AAGTAGAG,-0.085 ± 0.0023
15,GGGCTGAC,-0.0982 ± 0.021
16,CTATTACC,-0.265 ± 0.056
17,ACGGGTAC,-0.00756 ± 0.077
18,CCAGTGGC,-0.00243 ± 0.053
19,TAAAATGA,-0.0515 ± 0.079
20,AAGGTCGG,-0.123 ± 0.037
21,ACACATCT,0.325 ± 0.019
22,CCCACTAA,-0.0718 ± 0.0015
23,AATAAGTG,0.29 ± 0.02
24,AGCTTCTA,-0.158 ± 0.062
25,CAGAGTCC,-0.212 ± 0.1

row,Sequence,PBM E-score of 8-mer
1,CCCAGCTC,-0.138 ± 0.066
2,GAATCCTC,-0.159 ± 0.068
3,CGTGGCAC,0.233 ± 0.052
4,CTTTAGGC,0.0663 ± 0.057
5,ACGTACAA,0.0556 ± 0.0092
6,CCCTAGCC,-0.19433 ± 0.00014
7,GCCCGGCA,0.0239 ± 0.091
8,CTCAACGA,-0.1 ± 0.049
9,ATGACGCA,-0.0538 ± 0.042
10,ATGGGAGG,-0.271 ± 0.082
11,CGGGTGTA,0.0538 ± 0.035
12,TACAGCGA,-0.106 ± 0.033
13,GCTTTCCC,0.129 ± 0.068
14,CTTGTACC,-0.144 ± 0.037
15,AAGGTTAC,-0.145 ± 0.017
16,AAATGGCT,-0.12 ± 0.052
17,ATTCAATG,-0.333 ± 0.03
18,ATCGTCTC,-0.0822 ± 0.054
19,ACTACTAC,-0.105 ± 0.064
20,TGCATGCA,-0.442 ± 0.0075
21,AGCTCGTA,-0.0963 ± 0.06
22,CCAGCCAA,0.0372 ± 0.039
23,AGCTCACT,-0.0593 ± 0.0093
24,CGTTGCTA,0.0731 ± 0.047
25,AGTTCGTG,0.0689 ± 0.063

row,Sequence,PBM E-score of 8-mer
1,AGCTATCG,0.125 ± 0.0093
2,CTTAACGA,0.0542 ± 0.021
3,CGTGTTGA,0.295 ± 0.028
4,CGCGGCAA,0.1835 ± 0.0003
5,CCTCGTAG,-0.00827 ± 0.04
6,GTACTTGA,-0.0223 ± 0.03
7,ATTTCATA,-0.124 ± 0.14
8,ACTACATG,-0.0372 ± 0.047
9,GTCAGGCA,-0.0706 ± 0.019
10,ATCTACGG,-0.272 ± 0.019
11,CGGATACG,-0.138 ± 0.046
12,ACAAAGAG,0.0508 ± 0.043
13,CAGTCGGC,-0.0348 ± 0.016
14,CAGTGATG,-0.0435 ± 0.14
15,AAAAAATC,0.106 ± 0.12
16,ACTTGGAC,-0.0396 ± 0.025
17,GGGGGGAC,-0.339 ± 0.0087
18,CCGCTGAG,-0.05 ± 0.068
19,ACCTGCCG,0.229 ± 0.033
20,ACCTTCTC,0.0744 ± 0.018
21,AGCGGCTA,0.0512 ± 0.065
22,ATTGCGCC,0.0332 ± 0.0025
